According to PubChem BioAssay AID2010 (Broad Institute, 2009):
Over roughly 4,100 compounds, “activity change, negative = cytotoxicity” has its median near -43; the highest 2% begin near 39. Some of the results follow. Results with a measured potency or affinity are listed apart. Entries without a call are filed as inconclusive in the source.

test: NIH3T3 cell viability loss – ATP luminescence, mouse fibroblasts, counter-screen, dose response (AID 2010); details: ATP luminescence (CellTiter-Glo), 90 h; at 3 µM (top of the series)

Row | Compound | activity change, negative = cytotoxicity [%]
1 | C[C@H]1C[C@@H](C)C(=O)[C@@H]([C@H](O)CC2CC(=O)NC(=O)C2)C1 | -70.9
